Laboratory results from paper PMC11363325, “A Novel Prodrug Strategy Based on Reversibly Degradable Guanidine Imides for High Oral Bioavailability and Prolonged Pharmacokinetics of Broad-Spectrum Anti-influenza Agents” (ACS Central Science, 2024).

Legend:
[1] = Stability of OSC-GCDIs and GOC release in BALB/c serum; format: in vitro ADME; settings: mouse, 200 μM prodrug, 37 °C
Protocol: (§1) Stability of OSC-GCDIs in serum
Stability of the GCDI prodrugs were examined by incubating prodrugs in human and BALB/c serum at 37 °C and 200 μM final concentration. Briefly, each prodrug was dissolved in DMSO to be 20 mM concentration, then 10 μL of each prodrug solution was mixed with 990 μL of serum. At different time intervals, 100 μL of the samples were taken and mixed with 100 μL of MeCN. Samples were centrifuged at 14,000 rpm for 10 min at 4 °C and the supernatant was immediately frozen (−80 °C). After thawing and shaking, the samples were filtered using a polytetrafluoroethylene (PTFE) filter (0.20 μm pore size) […]
Release profiles of GOC from the OSC -GCDI prodrugs conjugated to human serum albumin OSC-GCDIs were dissolved in Dulbecco ’s Phosphate-Buffered Saline (DPBS) containing HSA (20 mg/mL) to be concentration of 1 mM, then the mixture was shaken for 10 min at 37 °C. Unbound OSC-GCDIs were removed by washing twice with DPBS using Vivaspin 500 ultrafiltration units (10 kDa cutoff).
Following centrifugation, the samples were redissolved in 1 mL DPBS. Before incubation at 37 °C, 50 µL sample was taken and mixed with 50 µL of 1 M KOH in m ethanol solution to completely hydrolyze the conjugates and determine the initial drug concentration bound to HSA. […] Then, the concentration of the released GOC was quantified by HPLC. […]

[2] = Stability of OSC-GCDIs in phosphate buffers; format: physicochemical; settings: sodium phosphate buffer
physchem [3] = format: physicochemical
[4] = Stability of OSC-GCDIs in human serum; format: in vitro ADME; settings: 200 μM prodrug, 37 °C
Protocol: as §1
Stability of the GCDI prodrugs were examined by incubating prodrugs in human and BALB/c serum at 37 °C and 200 μM final concentration. Briefly, each prodrug was dissolved in DMSO to be 20 mM concentration, then 10 μL of each prodrug solution was mixed with 990 μL of serum. At different time intervals, 100 μL of the samples were taken and mixed with 100 μL of MeCN. Samples were centrifuged at 14,000 rpm for 10 min at 4 °C and the supernatant was immediately frozen (−80 °C). After thawing

physchem [5] = format: physicochemical; settings: pH 7.4
in vitro = in vitro ADME; settings: PAMPA
Protocol: To assess this hypothesis, we conducted the parallel artificial membrane permeability assay (PAMPA) for simulating passive transcellular permeation.[41]
Supplemental Experimental Procedures
In vitro Parallel Artificial Membrane Permeability Assay (PAMPA) […]
evaluated using Parallel Artificial Membrane Permeability Assay Kit (PAMPA-096). Each prodrug and the supplied permeability controls were dissolved in DMSO at the concentration of 10 mM. Then 25 μL of each prodrug solution was mixed with 475 μL of 50 mM sodium phosphate buffer (pH 6.5) to be used as the test solution. GOC/HPMCP and OSC-GCDI/HPCMP particles are dissolved in 50 mM sodium phosphate buffer (5% DMSO, pH 6.5) to achieve a final concentration of 200 µM. In the acceptor plate, 300 μL of 50 mM sodium phosphate buffer (pH 7.4) was added. Subsequently, before adding 200 μL of each test solution to the donor plate, 5 μL of 4% lecithin in dodecane was directly applied to the well membrane of the donor plate. Donor plate was carefully placed into acceptor plate and incubate at r.t. for 16 – 24 h. Donor plate was removed and each solution was collected and filtered by a PVDF filter (0.20 μm pore size). The total prodrug concentration in each plate was determined by HPLC analysis.
In the case of OSC-GCDI(P), partial degradation occurred due to the instability of OSC-GCDI(P) in the buffer. Therefore, the collected solution was further incubated in a 1 M KOH solution for complete hydrolysis. Then, the concentration of GOC was quantified instead.

[6] = pH 2, phosphate buffer pH 2.0, 37 °C
[7] = pH 6.5, phosphate buffer pH 6.5, 37 °C
[8] = pH 7.4, phosphate buffer pH 7.4, 37 °C
[9] = pH 8, phosphate buffer pH 8.0, 37 °C

SMILES	half-life at 200 μM [1] [min]	half-life at 100 μM [2, 6] [min]	half-life at 100 μM [2, 7] [min]	half-life at 100 μM [2, 8] [min]	half-life at 100 μM [2, 9] [min]	logP (physchem [3])	half-life at 200 μM [4] [min]	logD (physchem [5])	Papp at 500 μM (in vitro) [×10⁻⁶ cm/s]	increase of lipophilicity of GOC via the GCDI modification (based on P) (physchem [3]) [fold]
CCC(CC)O[C@@H]1C=C(C(=O)O)C[C@H](N=C(N2C(=O)C3CCC(C)CC3C2=O)N2C(=O)C3CCC(C)CC3C2=O)[C@H]1NC(C)=O (stereo partly shown) [OSC-GCDI(CM)]	13.3	> 1440	693	99	3.92	1.62	31.2	0.98	3.07	–
CCC(CC)O[C@@H]1C=C(C(=O)O)C[C@H](N=C(N2C(=O)CCC2=O)N2C(=O)CCC2=O)[C@H]1NC(C)=O [OSC-GCDI(S)]	–	> 1440	–	–	–	-0.38	–	-1.34	–	8.8
CCC(CC)O[C@@H]1C=C(C(=O)O)C[C@H](N=C(N2C(=O)[C@H]3CC=CC[C@H]3C2=O)N2C(=O)[C@H]3CC=CC[C@H]3C2=O)[C@H]1NC(C)=O [OSC-GCDI(Ce)]	35.7	> 1440	1160	105	54.2	1.1	53.3	0.5	1.45	–
CCC(CC)O[C@@H]1C=C(C(=O)O)C[C@H](N=C(N2C(=O)CC(C)C2=O)N2C(=O)CC(C)C2=O)[C@H]1NC(C)=O (stereo partly shown) [OSC-GCDI(M)]	–	–	–	–	–	0.43	–	-0.51	0.16	–
